Measured values: the supplement of paper PMC11417369
This is one part of the list.

test system: PF3D7_0420300 AP2 domain 1 (GST-tagged); experiment: gcPBM binding intensity (ln(normalized median fluorescence intensity)); higher = stronger DNA binding
In short: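 Each value is the highest Masliner-normalised natural-log median intensity across replicate spots of either orientation of a probe. The probes were primer-extended double-stranded 36-bp intergenic genomic sequences on an Agilent 4 × 180k array, alongside negative controls, exposed for 1 h to GST-tagged P. falciparum DNA-binding domains expressed in E. coli. Bound protein was picked up with Alexa488 anti-GST antibody and scanned at 488 nm.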

Q: For “AAGACAAATTTTACATGTACAAATATATTACATATA [XGTACX_site7060]”, which “gcPBM binding intensity (ln)” value is on record?
A: 9.12

Q: With “GTAGACTGAAACCACACACACATATATATATATATT [CACACA_site605]” as the sequence, how does the “gcPBM binding intensity (ln)” value read?
A: 9.8

Q: Which “gcPBM binding intensity (ln)” value does the source give for “TAATATTTCGCACTGTGTACTGAAATATTTATATCG [XGTACX_site516]” here?
A: 9.13

Q: With “ATAATAAGACGATAAGGTACACAAAATGTTAATATA [XGTACX_site6984]” as the sequence, how does the “gcPBM binding intensity (ln)” value read?
A: 9.5

Q: Which “gcPBM binding intensity (ln)” value does the source give for “TAAAGCGACATTTGGAAAATATATATCCTAGCATTT [CACACA_negctrl_site327]” here?
A: 9.16

Q: How did the “gcPBM binding intensity (ln)” value turn out when “TATTCGTGCAATAGTAGTACACTTAAAAATTATTCA [XGTACX_site269]” was run?
A: 8.99

Q: With “ATTCGTTATAAAATATGTACATAAATATATATATAT [XGTACX_site2819]” as the sequence, how does the “gcPBM binding intensity (ln)” value read?
A: 9.23

Q: For “AAAATACACAGACACACACACATATAAATAAATATT [CACACA_site7871]”, which “gcPBM binding intensity (ln)” value is on record?
A: 10.1

Q: For “TTATAAAATAAACTTACACACATGAAATATTATATT [CACACA_site1945]”, which “gcPBM binding intensity (ln)” value is on record?
A: 9.49

Q: How did the “gcPBM binding intensity (ln)” value turn out when “ACATAGATGCATATCACACATAATAATATTGTCGTA [CACACA_site4819]” was run?
A: 9.28

Q: With “AAACAAAATAAATATGAACACACACCGTTATGCCTT [CACACA_site8347]” as the sequence, how does the “gcPBM binding intensity (ln)” value read?
A: 9.88

Q: “TATTTGTGGATTTTTACACACATTAATATATATATA [CACACA_site3375]” was tested. Which “gcPBM binding intensity (ln)” value did it give?
A: 9.35

Q: With “AGGAAAATTATGAATGGTACAGAATATATTAGGAGA [XGTACX_site6282]” as the sequence, how does the “gcPBM binding intensity (ln)” value read?
A: 9.44

Q: “GCACTAAAAAAATAAACACACAGATTTATATAATAT [CACACA_site1381]” was tested. Which “gcPBM binding intensity (ln)” value did it give?
A: 9.51

Q: How did the “gcPBM binding intensity (ln)” value turn out when “AATAAGTTATTATTTTGTACACATAAATAATACGTT [XGTACX_site814]” was run?
A: 9.26

Q: With “AAGGAACTATAATATACACACATAAGTGTACTTATA [CACACA_site7816]” as the sequence, how does the “gcPBM binding intensity (ln)” value read?
A: 9.41

Q: How did the “gcPBM binding intensity (ln)” value turn out when “ATATATGCATATATTTGTACACATTTTTTTACATAA [XGTACX_site4624]” was run?
A: 9.38

Q: Which “gcPBM binding intensity (ln)” value does the source give for “AAAAAAACGTAAAAATGTACTTTTTGTATATAACCT [XGTACX_site7950]” here?
A: 9.19

Q: Which “gcPBM binding intensity (ln)” value does the source give for “CGTAATAAAAACAAATGTACATGACCTGGACAGGTT [XGTACX_site6560]” here?
A: 9.5

Q: “GTATATTTTTAAAGGTGTACTTTTTTTTTTTTTTTT [XGTACX_site721]” was tested. Which “gcPBM binding intensity (ln)” value did it give?
A: 9.26

Q: Which “gcPBM binding intensity (ln)” value does the source give for “ATATAAAACTATAATACACACATAAAATATATTATA [CACACA_site6588]” here?
A: 9.73

Q: “TATATTTATTTATTCTGTACTGAAGACAGTTATGTA [XGTACX_site8857]” was tested. Which “gcPBM binding intensity (ln)” value did it give?
A: 8.98

Q: For “TATATAATACAACATGCACACATATATATGTGAATC [CACACA_site8794]”, which “gcPBM binding intensity (ln)” value is on record?
A: 9.62

Q: “ATAAATATATATATAGTGCATATAAGCCACCTTCAA [GTGCAC_site9628]” was tested. Which “gcPBM binding intensity (ln)” value did it give?
A: 9.28

Q: For “TACTAATATGATATATAAATATTGTTATATAATAAT [XGTACX_negctrl_site227]”, which “gcPBM binding intensity (ln)” value is on record?
A: 9.12

Q: How did the “gcPBM binding intensity (ln)” value turn out when “TGAATACAAATTTACGCATGTAATTTCCAGAGGGAG [TGCATGCA_site769]” was run?
A: 9

Q: Which “gcPBM binding intensity (ln)” value does the source give for “AAAATAAAAGAAAAAAGTACAAAATCAGATTAATTA [XGTACX_site8413]” here?
A: 9.41

Q: How did the “gcPBM binding intensity (ln)” value turn out when “AATATATGTAATATATGTACTTAATTATATTTTAAT [XGTACX_site4382]” was run?
A: 9.07

Q: “TATAAAATATAATTAGCACACATATATAAAATATAT [CACACA_site9355]” was tested. Which “gcPBM binding intensity (ln)” value did it give?
A: 9.33

Q: “TTACCTTTATTGTATGAACACACATAAGCTGATACA [CACACA_site9334]” was tested. Which “gcPBM binding intensity (ln)” value did it give?
A: 9.29

Q: How did the “gcPBM binding intensity (ln)” value turn out when AAAAAAAAAAAAAGAGTGCAAACTATGATAATTTAA was run?
A: 9.43

Q: With “ACATATGAATATAATACACACTTGTATTATTAATAT [CACACA_site8546]” as the sequence, how does the “gcPBM binding intensity (ln)” value read?
A: 9.4

Q: Which “gcPBM binding intensity (ln)” value does the source give for “AAAATTTAATATAATGCACACATAAAAAAAAAAAAA [CACACA_site7923]” here?
A: 9.32

Q: For “CCATTTTTTTTATACGCACACGTCATACTTTTAAAA [CACACA_site4988]”, which “gcPBM binding intensity (ln)” value is on record?
A: 9.46

Q: “TATATATATACATATTGTACATGTGTATATTTTTTT [XGTACX_site361]” was tested. Which “gcPBM binding intensity (ln)” value did it give?
A: 9.21

Q: Which “gcPBM binding intensity (ln)” value does the source give for “TTAGTTATTAAAAAAAGTACATAAGTAGATATCATC [XGTACX_site8712]” here?
A: 9.28

Q: For “GAATAATATGGACATACACACATATACATACATATA [CACACA_site2114]”, which “gcPBM binding intensity (ln)” value is on record?
A: 9.7

Q: How did the “gcPBM binding intensity (ln)” value turn out when “TTATTTCATTCTTGAAGTACGTGAAAAATGAAAACA [XGTACX_site4089]” was run?
A: 8.96

Q: How did the “gcPBM binding intensity (ln)” value turn out when “GGACAAGAATAGTGCACATGCAATGTTATTTTTTAT [TGCATGCA_site450]” was run?
A: 9.31

Q: “CGTTTTAATAAGATCACACATATAATATATATATAT [CACACA_site5159]” was tested. Which “gcPBM binding intensity (ln)” value did it give?
A: 9.18

Q: “ATTATAACCATATACACACCCATATAAATAAATATA [CACACA_site6926]” was tested. Which “gcPBM binding intensity (ln)” value did it give?
A: 9.73

Q: How did the “gcPBM binding intensity (ln)” value turn out when “TATTAAATGGCCATTACATGCAATTATTTCTAATAA [TGCATGCA_site275]” was run?
A: 8.99

Q: For “ATATTAAATGTTATCACACACATAATTACTTCCATA [CACACA_site7160]”, which “gcPBM binding intensity (ln)” value is on record?
A: 9.66

Q: “TCAAATATATAGAATACACACATGGATATAAGAAAT [CACACA_site4065]” was tested. Which “gcPBM binding intensity (ln)” value did it give?
A: 9.9

Q: For “ATTTAATTTGTTCTTACACACACATATATATATATT [CACACA_site8310]”, which “gcPBM binding intensity (ln)” value is on record?
A: 10.1

Q: For “TCATACGAAATATAAACACACATACAATAAATAAAT [CACACA_site5156]”, which “gcPBM binding intensity (ln)” value is on record?
A: 9.92

Q: “ATAATATAAATACAAACACACAATTGCGTCCACATT [CACACA_site5039]” was tested. Which “gcPBM binding intensity (ln)” value did it give?
A: 9.79

Q: For “ATATATTTTATATAATGTACATAAACCGCACACATA [XGTACX_site6061]”, which “gcPBM binding intensity (ln)” value is on record?
A: 9.46

Q: “TTTCAAATTTAATACACACACAAGTATATATCTATC [CACACA_site7782]” was tested. Which “gcPBM binding intensity (ln)” value did it give?
A: 9.69

Q: For “ATTTAAAAAAAAAAAAAAAAAAAAAAAAAAAGAAAA [CACACA_negctrl_site722]”, which “gcPBM binding intensity (ln)” value is on record?
A: 8.76

Q: How did the “gcPBM binding intensity (ln)” value turn out when “TTTAATATTAGCATATGTACACAAATCACACGGAAA [XGTACX_site2473]” was run?
A: 9.42

Q: Which “gcPBM binding intensity (ln)” value does the source give for “TATATTATGACCACCACACACCTATACACATAACAT [CACACA_site7199]” here?
A: 9.62

Q: With “TAATCCTTTCAATATTGTACACATTTGTGTTAAGAA [XGTACX_site1275]” as the sequence, how does the “gcPBM binding intensity (ln)” value read?
A: 9.04

Q: How did the “gcPBM binding intensity (ln)” value turn out when “TTTTTTAACTGTATGATGTTATATTAAAAATAAAAA [GTGCAC_negctrl_site463]” was run?
A: 8.7

Q: “AACGCACGAGGACACACACACATATTTATATTTATA [CACACA_site6608]” was tested. Which “gcPBM binding intensity (ln)” value did it give?
A: 9.87

Q: For “ATTTATATATAATATACACACATATAATACCCATAT [CACACA_site4548]”, which “gcPBM binding intensity (ln)” value is on record?
A: 9.76

Q: Which “gcPBM binding intensity (ln)” value does the source give for “GGATTAATATATTTACCACACACCCATTTCGATTTT [CACACA_site9200]” here?
A: 9.67
